# According to the supplement of paper PMC8728848:
# The other results are listed elsewhere or left out.
# B1: Surfactant Protein D (Human); Neck + Carbohydrate Recognition Domain (NCRD) (Homo sapiens) (protein)
# chain: MLLFLLSALVLLTQPLGYLEAEMKTYSHRTMPSACTLVMCSSVESGLPGRDRDGREGPRGEKGDPGLPGAAGQAGMPGQAGPVGPKGDNGSVGEPGPKGDTGPSGPPGPPGVPGPAGREGALGKQGNIGPQGKPGPKGEAGPKGEVGAPGMQGSAGARGLAGPKGERGVPGERGVPGNTGAAGSAGAMGPQGSPGARGPPGLKGDKGIPGDKGAKGESGLPDVASLRQQVEALQGQVQHLQAAFSQYKKVELFPNGQSVGEKIFKTAQFVKPFTEAQLLCTQAGGQLASPRSAAENAALQQLVVAKNEAAFLSMTDSKTEGKFTYPTGESLVYSNWAPGEPNDDGGSEDCVEIFTNGKWNDKACGEKRLVVCEF
# Columns and labels:
# Test in all cases: glycan array binding signal (z-score within array); higher = stronger binding
# Details in all cases: glycan notation: IUPAC condensed, linker removed; mutation: R343K
# [1] = target: Neu5Ac(a2-3)Gal(b1-3)[Fuc(a1-4)]GlcNAc(b1-3)Gal(b1-4)[Fuc(a1-3)]GlcNAc
# Outline: (§1)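 Glycan array data were curated from 3228 arrays in the Consortium for Functional Glycomics database and kept only where the protein sequence was available. Glycan names were converted to IUPAC-condensed notation, and columns mapping to the same glycan were averaged. The binding signal is a within-array Z-score, averaged across arrays of the same protein sequence at different concentrations or buffers and across linkers. Negative Z-scores can be read as non-binding.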
# [2] = target: Neu5Ac(a2-3)Gal(b1-3)[Neu5Ac(a2-3)Gal(b1-4)]GlcNAc
# Outline: as §1
# [3] = target: Neu5Ac(a2-3)Gal(b1-3)[Neu5Ac(a2-6)]GalNAc
# Outline: as §1
# Neu5Ac(a2-3)Gal(b1-4)Glc = target: Neu5Ac(a2-3)Gal(b1-4)Glc
# Outline: as §1
# [4] = target: Neu5Ac(a2-3)Gal(b1-4)GlcNAc
# Outline: as §1
# [5] = target: Neu5Ac(a2-3)Gal(b1-4)GlcNAc(b1-2)Man(a1-3)[GlcNAc(b1-2)Man(b1-4)GlcNAc(b1-2)Man(a1-6)]Man(b1-4)GlcNAc(b1-4)GlcNAc
# Outline: as §1
# [6] = target: Neu5Ac(a2-3)Gal(b1-4)GlcNAc(b1-2)Man(a1-3)[Neu5Ac(a2-6)Gal(b1-4)GlcNAc(b1-2)Man(a1-6)]Man(b1-4)GlcNAc(b1-4)GlcNAc
# Outline: as §1
# [7] = target: Neu5Ac(a2-3)Gal(b1-4)GlcNAc(b1-3)Gal(b1-3)GlcNAc
# Outline: as §1
# [8] = target: Neu5Ac(a2-3)Gal(b1-4)GlcNAc(b1-3)Gal(b1-4)GlcNAc
# Outline: as §1
# [9] = target: Neu5Ac(a2-3)Gal(b1-4)GlcNAc(b1-3)Gal(b1-4)GlcNAc(b1-3)Gal(b1-4)GlcNAc
# Outline: as §1
# [10] = target: Neu5Ac(a2-3)Gal(b1-4)GlcNAc(b1-3)Gal(b1-4)[Fuc(a1-3)]GlcNAc
# Outline: as §1
# [11] = target: Neu5Ac(a2-3)Gal(b1-4)GlcNAc(b1-6)[Gal(b1-3)]GalNAc
# Outline: as §1
# [12] = target: Neu5Ac(a2-3)Gal(b1-4)GlcNAc(b1-6)[Neu5Ac(a2-3)Gal(b1-3)]GalNAc
# Outline: as §1
# [13] = target: Neu5Ac(a2-3)Gal(b1-4)GlcNAc6S
# Outline: as §1
# [14] = target: Neu5Ac(a2-3)Gal(b1-4)[Fuc(a1-3)]GlcNAc
# Outline: as §1
# [15] = target: Neu5Ac(a2-3)Gal(b1-4)[Fuc(a1-3)]GlcNAc(b1-3)Gal
# Outline: as §1
# [16] = target: Neu5Ac(a2-3)Gal(b1-4)[Fuc(a1-3)]GlcNAc(b1-3)Gal(b1-4)GlcNAc
# Outline: as §1
# [17] = target: Neu5Ac(a2-3)Gal(b1-4)[Fuc(a1-3)]GlcNAc(b1-3)Gal(b1-4)[Fuc(a1-3)]GlcNAc(b1-3)Gal(b1-4)[Fuc(a1-3)]GlcNAc
# Outline: as §1
# [18] = target: Neu5Ac(a2-3)Gal(b1-4)[Fuc(a1-3)]GlcNAc(b1-6)[Gal(b1-3)]GalNAc
# Outline: as §1
# [19] = target: Neu5Ac(a2-3)Gal(b1-4)[Fuc(a1-3)]GlcNAc6S
# Outline: as §1
# [20] = target: Neu5Ac(a2-3)Gal6S(b1-4)GlcNAc
# Outline: as §1
# [21] = target: Neu5Ac(a2-3)Gal6S(b1-4)[Fuc(a1-3)]GlcNAc
# Outline: as §1
# Neu5Ac(a2-3)GalNAc = target: Neu5Ac(a2-3)GalNAc
# Outline: as §1
# [22] = target: Neu5Ac(a2-3)GalNAc(b1-4)GlcNAc
# Outline: as §1
# [23] = target: Neu5Ac(a2-3)[GalNAc(b1-4)]Gal(b1-4)Glc
# Outline: as §1
# [24] = target: Neu5Ac(a2-3)[GalNAc(b1-4)]Gal(b1-4)GlcNAc
# Outline: as §1
# [25] = target: Neu5Ac(a2-3)[Neu5Ac(a2-6)]GalNAc
# Outline: as §1
# Neu5Ac(a2-6)Gal = target: Neu5Ac(a2-6)Gal
# Outline: as §1
# Neu5Ac(a2-6)Gal(b1-4)Glc = target: Neu5Ac(a2-6)Gal(b1-4)Glc
# Outline: as §1
# [26] = target: Neu5Ac(a2-6)Gal(b1-4)GlcNAc
# Outline: as §1
# [27] = target: Neu5Ac(a2-6)Gal(b1-4)GlcNAc(b1-2)Man(a1-3)[Gal(b1-4)GlcNAc(b1-2)Man(a1-6)]Man(b1-4)GlcNAc(b1-4)GlcNAc
# Outline: as §1
# [28] = target: Neu5Ac(a2-6)Gal(b1-4)GlcNAc(b1-2)Man(a1-3)[GlcNAc(b1-2)Man(a1-6)]Man(b1-4)GlcNAc(b1-4)GlcNAc
# Outline: as §1
# [29] = target: Neu5Ac(a2-6)Gal(b1-4)GlcNAc(b1-2)Man(a1-3)[GlcNAc(b1-2)Man(b1-4)GlcNAc(b1-2)Man(a1-6)]Man(b1-4)GlcNAc(b1-4)GlcNAc
# Outline: as §1
# [30] = target: Neu5Ac(a2-6)Gal(b1-4)GlcNAc(b1-2)Man(a1-3)[Neu5Ac(a2-6)Gal(b1-4)GlcNAc(b1-2)Man(a1-6)]Man(b1-4)GlcNAc(b1-4)GlcNAc
# Outline: as §1
# [31] = target: Neu5Ac(a2-6)Gal(b1-4)GlcNAc(b1-2)Man(a1-6)[Gal(b1-4)GlcNAc(b1-2)Man(a1-3)]Man(b1-4)GlcNAc(b1-4)GlcNAc
# Outline: as §1
# [32] = target: Neu5Ac(a2-6)Gal(b1-4)GlcNAc(b1-2)Man(a1-6)[GlcNAc(b1-2)Man(a1-3)]Man(b1-4)GlcNAc(b1-4)GlcNAc
# Outline: as §1
# [33] = target: Neu5Ac(a2-6)Gal(b1-4)GlcNAc(b1-3)Gal(b1-4)GlcNAc
# Outline: as §1
# [34] = target: Neu5Ac(a2-6)Gal(b1-4)GlcNAc(b1-3)Gal(b1-4)[Fuc(a1-3)]GlcNAc(b1-3)Gal(b1-4)[Fuc(a1-3)]GlcNAc
# Outline: as §1
# [35] = target: Neu5Ac(a2-6)Gal(b1-4)GlcNAc6S
# Outline: as §1
# Neu5Ac(a2-6)GalNAc = target: Neu5Ac(a2-6)GalNAc
# Outline: as §1
# [36] = target: Neu5Ac(a2-6)GalNAc(b1-4)GlcNAc
# Outline: as §1
# Neu5Ac(a2-8)Neu5Ac = target: Neu5Ac(a2-8)Neu5Ac
# Outline: as §1
# [37] = target: Neu5Ac(a2-8)Neu5Ac(a2-3)Gal(b1-4)Glc
# Outline: as §1
# [38] = target: Neu5Ac(a2-8)Neu5Ac(a2-3)[GalNAc(b1-4)]Gal(b1-4)Glc
# Outline: as §1
# [39] = target: Neu5Ac(a2-8)Neu5Ac(a2-8)Neu5Ac
# Outline: as §1
# [40] = target: Neu5Ac(a2-8)Neu5Ac(a2-8)Neu5Ac(a2-3)Gal(b1-4)Glc
# Outline: as §1
# [41] = target: Neu5Ac(a2-8)Neu5Ac(a2-8)Neu5Ac(a2-3)[GalNAc(b1-4)]Gal(b1-4)Glc
# Outline: as §1
# [42] = target: Neu5Ac(a2-8)Neu5Ac(a2-8)Neu5Ac(a2-8)Neu5Ac(a2-3)[GalNAc(b1-4)]Gal(b1-4)Glc
# Outline: as §1
# [43] = target: Neu5Ac(b2-6)Gal(b1-4)GlcNAc
# Outline: as §1
# Neu5Ac(b2-6)GalNAc = target: Neu5Ac(b2-6)GalNAc
# Outline: as §1
# [44] = target: Neu5Ac9Ac(a2-6)Gal(b1-4)GlcNAc
# Outline: as §1
# [45] = target: Neu5Gc(a2-3)Gal(b1-3)GlcNAc
# Outline: as §1
# [46] = target: Neu5Gc(a2-3)Gal(b1-3)[Fuc(a1-4)]GlcNAc
# Outline: as §1
# Neu5Gc(a2-3)Gal(b1-4)Glc = target: Neu5Gc(a2-3)Gal(b1-4)Glc
# Outline: as §1
# [47] = target: Neu5Gc(a2-3)Gal(b1-4)GlcNAc
# Outline: as §1
# [48] = target: Neu5Gc(a2-3)Gal(b1-4)[Fuc(a1-3)]GlcNAc
# Outline: as §1
# [49] = target: Neu5Gc(a2-6)Gal(b1-4)GlcNAc
# Outline: as §1
# Neu5Gc(a2-6)GalNAc = target: Neu5Gc(a2-6)GalNAc
# Outline: as §1
# [50] = target: Neu5Gc(b2-6)Gal(b1-4)GlcNAc
# Outline: as §1
binder,measurement,setting,value
B1,glycan array binding signal (z-score),[1],-0.141
same,glycan array binding signal (z-score),[2],-0.153
same,glycan array binding signal (z-score),[3],-0.151
same,glycan array binding signal (z-score),Neu5Ac(a2-3)Gal(b1-4)Glc,-0.154
same,glycan array binding signal (z-score),[4],-0.15
same,glycan array binding signal (z-score),[5],-0.144
same,glycan array binding signal (z-score),[6],-0.153
same,glycan array binding signal (z-score),[7],-0.153
same,glycan array binding signal (z-score),[8],-0.152
same,glycan array binding signal (z-score),[9],-0.143
same,glycan array binding signal (z-score),[10],-0.151
same,glycan array binding signal (z-score),[11],-0.156
same,glycan array binding signal (z-score),[12],-0.149
same,glycan array binding signal (z-score),[13],-0.14
same,glycan array binding signal (z-score),[14],-0.147
same,glycan array binding signal (z-score),[15],-0.157
same,glycan array binding signal (z-score),[16],-0.151
same,glycan array binding signal (z-score),[17],-0.154
same,glycan array binding signal (z-score),[18],-0.12
same,glycan array binding signal (z-score),[19],-0.149
same,glycan array binding signal (z-score),[20],-0.148
same,glycan array binding signal (z-score),[21],-0.153
same,glycan array binding signal (z-score),Neu5Ac(a2-3)GalNAc,-0.089
same,glycan array binding signal (z-score),[22],-0.153
same,glycan array binding signal (z-score),[23],-0.152
same,glycan array binding signal (z-score),[24],-0.147
same,glycan array binding signal (z-score),[25],-0.15
same,glycan array binding signal (z-score),Neu5Ac(a2-6)Gal,-0.155
same,glycan array binding signal (z-score),Neu5Ac(a2-6)Gal(b1-4)Glc,-0.151
same,glycan array binding signal (z-score),[26],-0.155
same,glycan array binding signal (z-score),[27],-0.148
same,glycan array binding signal (z-score),[28],-0.147
same,glycan array binding signal (z-score),[29],-0.153
same,glycan array binding signal (z-score),[30],-0.147
same,glycan array binding signal (z-score),[31],-0.148
same,glycan array binding signal (z-score),[32],-0.145
same,glycan array binding signal (z-score),[33],-0.155
same,glycan array binding signal (z-score),[34],-0.142
same,glycan array binding signal (z-score),[35],-0.155
same,glycan array binding signal (z-score),Neu5Ac(a2-6)GalNAc,-0.156
same,glycan array binding signal (z-score),[36],-0.155
same,glycan array binding signal (z-score),Neu5Ac(a2-8)Neu5Ac,-0.146
same,glycan array binding signal (z-score),[37],-0.149
same,glycan array binding signal (z-score),[38],-0.154
same,glycan array binding signal (z-score),[39],-0.154
same,glycan array binding signal (z-score),[40],-0.155
same,glycan array binding signal (z-score),[41],-0.156
same,glycan array binding signal (z-score),[42],-0.155
same,glycan array binding signal (z-score),[43],-0.147
same,glycan array binding signal (z-score),Neu5Ac(b2-6)GalNAc,-0.155
same,glycan array binding signal (z-score),[44],-0.15
same,glycan array binding signal (z-score),[45],-0.158
same,glycan array binding signal (z-score),[46],-0.145
same,glycan array binding signal (z-score),Neu5Gc(a2-3)Gal(b1-4)Glc,-0.152
same,glycan array binding signal (z-score),[47],-0.153
same,glycan array binding signal (z-score),[48],-0.151
same,glycan array binding signal (z-score),[49],-0.155
same,glycan array binding signal (z-score),Neu5Gc(a2-6)GalNAc,-0.149
same,glycan array binding signal (z-score),[50],-0.145
